The campaign covered roughly 420,000 compounds. About 64,000 (15%) were called active. The inconclusive results got no clear call from the source; some entries with a clear call stand among them for comparison. Calls follow the shape of the dose curve; as a rule, active = well fitted inhibition curve with a large enough effect; inconclusive = small, poorly fitted or top-dose-only effect; inactive = flat fitted curve, though single readings scatter. Potencies of inconclusive entries are left out as doubtful fits.
Assay: qHTS for Inhibitors of human tyrosyl-DNA phosphodiesterase 1 (TDP1): qHTS in cells in absence of CPT; also: nearly all actives have a fitted effect of over 55% in size
Settings: DT40 Tdp1-/- hTDP1 cells, no CPT, ATP luminescence, 48 h; series mostly up to 46.2 µM
Method in brief: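 Growth of hTDP1-complemented DT40 Tdp1-knockout cells is measured by ATP luminescence after at least 48 hr compound exposure at 37 °C, with DMSO substituting for the 20 nM CPT used in the parallel screen.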
Potency is read from the fitted curve at half-maximal effect; tags tell the direction and shape of the fitted curve.

| SMILES | Potency |
| --- | --- |
| O=Cc1ccc(OCC(=O)NC(=O)NC2CCCCC2)cc1 | inconclusive [inhibitor, partial curve] |
| COCc1ccc([C@@H]2C[C@H]3CN(Cc4ccccc4C)C(=O)[C@]34CCCN24)o1 | inactive |
| Cc1cccc(C(=O)OCC(=O)N2CCCC2=O)c1[N+](=O)[O-] | inactive |
| CCN1CCN(CCCNC(=O)c2ccc3c(c2)sc2nc(-c4ccc(OC)cc4)cn23)CC1 | active: 1.3 µM |
| Cn1c(=O)c2c(nc(Sc3ncnn3CC(=O)N3CCOCC3)n2C)n(C)c1=O | inactive |
| Cc1ccc(C(=O)NCCc2nnc3ccc(NCc4ccc5c(c4)OCO5)nn23)cc1 | inconclusive [inhibitor, partial curve] |
| CN1CCC(N(C)C(=S)NC(=O)c2cc(-c3cccc(Br)c3)nc3ccccc23)CC1 | active: 18.4 µM |
| CCNC(=O)NC(=O)CSc1nc2ccccc2n1CC(C)C | inconclusive [inhibitor, single point] |
| COc1cc(Cl)cc(C(c2c(C(=O)O)[nH]c3ccccc23)c2c(C(=O)O)[nH]c3ccccc23)c1O | inactive |
| CCNc1c(NC(=O)c2cc(OCC)c(OCC)c(OCC)c2)c(=O)oc2ccccc12 | inconclusive [inhibitor, partial curve] |
| CCOc1ccccc1OCCCC(=O)N1CCN(S(=O)(=O)c2ccc(C)cc2)CC1 | inconclusive [inhibitor, partial curve] |
| Cc1nc(Cl)c(C(=O)NCCc2ccccc2)c(C)c1[N+](=O)[O-] | inactive |
| N#C/C(=C\c1cccnc1)C(=O)Nc1cccc2ccccc12 | inconclusive [inhibitor, partial curve, poor fit] |
| c1ccc(CN2CCN(c3nc(-c4ccccn4)nc4ccccc34)CC2)cc1 | inactive |
| Cc1ccccc1OCC(=O)N1N=C(C(F)(F)F)CC1(O)C(C)(C)C (stereo not drawn) | active: 16.4 µM |
| COC(=O)c1sc(C(C)(C)C)cc1CS(=O)(=O)c1ccc(Cl)cc1 | inconclusive [inhibitor, single point] |
| COc1ccccc1C(CC(=O)Nc1nccs1)c1ccco1 (stereo not drawn) | active: 14.6 µM |
| CCCCNC(=O)C1(C)CCCCN1CC(=O)c1ccc(OC)cc1 (stereo not drawn) | active: 25.9 µM |
| CN(C)S(=O)(=O)c1cccc(NC(=S)Nc2ccc(Cl)cc2Cl)c1 | active: 16.4 µM |
| CCOC(=O)c1c(-c2ccc(OC)cc2)oc2ccc(OCc3ccc(C(=O)OC)cc3)cc12 | inconclusive [inhibitor, single point] |
| CCOc1ccc(C2C(C#N)=C(N)Oc3cc(O)ccc32)cc1OCC (stereo not drawn) | inconclusive [inhibitor, single point] |
| Cc1cc(C)n(CCc2nc(-c3cc4ccccc4o3)cs2)n1 | active: 18.4 µM |
| O=C1/C(=C/c2ccccc2)Oc2cc(OC(=O)N3CCOCC3)ccc21 | inconclusive [inhibitor, single point] |
| Cc1ccc(S(=O)(=O)/N=C(/c2ccccc2)N(C)C)c(C)c1 | inactive |

| SMILES | Potency |
| --- | --- |
| COc1ccccc1CNc1cc(-c2cccnc2)ncn1 | inactive |
| CCc1ccc(N=C2N=C(N)c3ccccc32)cc1 | inconclusive [inhibitor, partial curve] |
| COc1ccc(CN2CCC(=O)N([C@H](CO)c3ccccc3)CC2)cc1 | inactive |
| CC(C)c1cc(CNC(=O)C2CCC(=O)N(CCc3ccc(Cl)cc3)C2)on1 (stereo not drawn) | inactive |
| Cc1nnc(-c2cccc(Br)c2)c2cn(-c3ccccc3Cl)nc12 | inconclusive [inhibitor, single point] |
| O=C(Nc1nc(-c2ccc(F)c(F)c2)cs1)c1ccc(OCC2CCCO2)cc1 (stereo not drawn) | inconclusive [inhibitor, partial curve] |
| COc1ccc([C@@H]2[C@@H]3C(=O)N(C(C)(C)C)C(=O)[C@@H]3[C@]3(C)C(=O)N(c4cccc(Cl)c4)C(=O)N23)cc1 | inactive |
| Cn1c(=O)[nH]c(=O)c2c1nc(SCCO)n2CC(O)COc1ccccc1 (stereo not drawn) | inconclusive [inhibitor, partial curve] |
| O=C(NCCCN1CCCC1=O)c1cc(S(=O)(=O)N2CCN(c3ccccc3)CC2)ccc1Cl | inconclusive [inhibitor, single point] |
| CCCCC(CC)CN1C(=O)/C(=C/c2ccncc2)SC1=S (stereo not drawn) | inconclusive [inhibitor, single point] |
| COc1cccc(CNC(=O)CCn2cccn2)c1 | inactive |
| CC(=O)c1ccc(N2CCN(C(=S)Nc3ccccc3C(F)(F)F)CC2)cc1 | inconclusive [inhibitor, single point] |
| Cc1ccc(/C=N/N2CCN(Cc3ccccc3)CC2)o1 | inactive |
| Cc1ccc(-c2nc(CN3CCCC(C(=O)N4CCOCC4)C3)c(C)o2)cc1 (stereo not drawn) | inactive |
| CC1(C)Cc2c(sc3c2c(=N)n(Cc2ccco2)c(=O)n3CC(=O)Nc2ccc(Cl)cc2)CO1 | inconclusive [inhibitor, single point] |
| Cc1ccc(NS(=O)(=O)c2ccccc2Cl)c2c1CC(C)(C)O2 | active: 14.1 µM |
| Cc1ccc(-c2cnc(C(O)c3ccc(Cl)c(Cl)c3)[nH]2)cc1 (stereo not drawn) | active: 14.6 µM |
| Cc1cn([C@H]2C[C@H](O)[C@@H](CNC(=O)CNC(=O)CN)O2)c(=O)[nH]c1=O | inactive |
| COc1ccc(CC(N)c2csc(NC(=O)NCCc3ccccc3)n2)cc1 (stereo not drawn) | inconclusive [inhibitor, single point] |
| COc1ccc(COn2nnc3ccc(S(=O)(=O)N4CCOCC4)cc32)cc1F | inactive |
| Cc1nn(-c2ccccc2)c2c1C(c1ccco1)C(C#N)=C(N)O2 (stereo not drawn) | inconclusive [inhibitor, single point] |
| CCCNC(=O)C(CC)NC(=O)c1ccc(C#N)cc1 (stereo not drawn) | inactive |
| CCOC(=O)C(=Cc1ccc(-n2ccnc2)cc1)C(=O)OCC | active: 20.6 µM |
| CCN(C(=S)NC(=O)c1ccco1)c1cccc2ccccc12 | inconclusive [inhibitor, single point] |
